The source of these data is patent US10363282B2, “Analogs of C5a and methods of using same” (priority 2010, dated 2019).

Like-named read-outs stand apart in the source and are kept apart here. Where no end group is shown, it is not given here. [ ]: non-standard residue; d: D form. NMeL = CN[C@@H](CC(C)C)C(=O)O

For assay [1], the system named is CA-MRSA strain USA300. The note with it: for lesion size, neutropenic mice vs respective IgG-treated paired control animals: RB6-8C5 Mab, P<0.001. As to the method:
Bacterial strains and culture conditions. Methicillin-sensitive Staphylococcus aureus (MSSA) laboratory strain ISP479C (Pattee P A., et al., J Bacteriol 1981;145:479-488) and CA-MRSA USA300 isolate (TCH1516-HOU-MR, ATCC accession number BAA-1717) (Highlander S K, et al., BMC Microbiol 2007;7:99) were used in this study. Strains were grown aerobically in tryptone soy (TS) broth (Oxoid) at 37° C.
Mouse model of MRSA demonecrotic infection. All animal work was carried out under the approval of the Office of Laboratory Animal Care (OLAC) at San Diego State University and adhered to accepted veterinary standards. Outbred female CD1 mice 8-12 weeks of age were obtained from Charles River Laboratories. CD88−/− mice were purchased from Jackson Labs. Originally on a heterozygous background, these animals were back-crossed at least 5 times onto the C57B^1/6 background. Prior to infection, hair was removed from the lower backs of mice (n=6-10) using a razor and depilatory cream. Sub-cutaneous S. aureus infection was carried out as described previously (Bunce C, et al., Infect Immun 1992;60:2636-2640). Briefly, 0.1 mL volumes of mid-logarithmic phase MRSA ˜4×10^7 CFU diluted in cytodex bead-DPBS solution were injected sub-cutaneously into the right flank of prepared animals. Where indicated, 250 μg EP67, sEP67 or an equivalent volume of DPBS (50 μL) were injected sub-cutaneously into the right flank 24 h and 4 h prior to and 24 h following bacterial infection. Lesion size was measured on subsequent days using digital calipers. Ulcerative lesions were measured over time, harvested and homogenized using sterile 1 mm ceramic beads. Dilutions of the homogenate were placed on TS agar to enumerate bacterial colony forming units (cfu) per g tissue. Mice (CD1) were rendered neutropenic as described previously (Hoesel L M, et al., Shock 2005; 24:40-47). Briefly, mice were injected intra-peritoneally with rat monoclonal anti-mouse Ly-6G antibody (RB6-8C5, eBioscience) or control rat immunoglobulin (IgG, eBioscience) 24 h prior to EP67 injection and subsequent bacterial infection as described above.
EP67 treatment reduces S. aureus cutaneous lesion formation in mice. In order to examine the effects of immunomodulatory peptide EP67 on CA-MRSA disease progression, a mouse model of ulcerative dermal infection was used (Bunce C, Infect Immun 1992; 60:2636-2640). […] Prior to and post-MRSA infection, mice were injected with 250 μg EP67 or the scrambled peptide control, sEP67, as described in above. Disease progression was assessed via measurement of cutaneous lesion development.

Assay [2] relates to CA-MRSA strain USA300. Put plainly: Proinflammatory cytokines in skin lesion homogenates (ELISA). It is filed as in vivo, mice. As to the method:
Measurement of cytokines. IL-6, TNF-α, INF-γ and KC inflammatory cytokines were measured in tissue homogenates as previously described using ELISA for IL-6, TNF-α, INF-γ (Morgan E L, et al., Vaccine;28:8275-8279), or according to manufacturer's protocols (BD and R&D Systems) for KC. Samples were run in triplicate.
Proinflammatory cytokines are enhanced by EP67 treatment. The decrease in lesion size observed in EP67-treated animals indicated an enhanced immune activation in these animals. In order to determine the nature of the immune response activated by EP67 treatment, skin lesions were harvested 48 h post-infection and EP67 or sEP67 treatment, and subjected to ELISA to measure proinflammatory cytokines in tissue homogenates.
On the technique in general: ELISA stands for enzyme-linked immunosorbent assay.

Where [3] appears, read: 48 h post-infection, compared to sEP67.

As for “(MeL)RMYKPaFDS ([NMeL]RMYKP[dA]FDS) [sEP67, reference compound]”, the “lesion size, neutropenic mice vs respective IgG-treated paired control animals” value with CA-MRSA strain USA300 [1] was “significantly larger lesions”.
On to “YSFKDMP(MeL)aR (YSFKDMP[NMeL][dA]R; listed as Homo sapiens) [EP67, C-terminal analog of human C5a]”, for which the lesion size entry with CA-MRSA strain USA300 [1] (250 μg s.c., 48 h post-bacterial inoculation, compared to sEP67) is “significantly reduced”; in the assay on CA-MRSA strain USA300 [1] (isotype IgG control antibody groups, EP67 compared to sEP67), “significant reduction in lesion size”; with CA-MRSA strain USA300 [1] (neutropenic mice (RB6-8C5 Mab), EP67 vs sEP67), “no quantifiable difference in lesion size”. Further, the “bacterial load (CFU) in lesions” value in the assay on CA-MRSA strain USA300 [1] (5 days post-inoculation, compared to sEP67 or PBS) is reported as “significant reduction in bacterial load”. For the same substance, in the assay with CA-MRSA strain USA300 [1], the “lesion size, neutropenic mice vs respective IgG-treated paired control animals” value is recorded as “significantly larger lesions”. Moreover, in the assay on CA-MRSA strain USA300 [2] (setting [3]), the “IL-6 in skin lesion homogenates” value is given as “Significantly higher levels”. The “murine KC in skin lesion homogenates” value with CA-MRSA strain USA300 [2] (setting [3]) was “Significantly higher levels”. Besides, the INF-γ production entry in the assay with CA-MRSA strain USA300 [2] (during MRSA infection) is on record as “increase”. Also, the TNF-α production result in the assay with CA-MRSA strain USA300 [2] (during MRSA infection) was “increase”.
